Out of some 370,000 compounds screened, about 150 (0.041%) were called active. Inconclusive means that the source gave no clear call. Such entries were picked first, then a sample of the others. The call rests on the fitted dose curve; in most records, active means well fitted inhibition curve with a large enough effect; inconclusive means small, poorly fitted or top-dose-only effect; inactive means flat fitted curve, though single readings scatter. No potency is given beside an inconclusive call; the fits are too rough.
Target: Beta-lactamase (Escherichia coli (strain K12)) (UniProt P00811)
UniProt P00811, sequence (P00811 whole entry, looked up): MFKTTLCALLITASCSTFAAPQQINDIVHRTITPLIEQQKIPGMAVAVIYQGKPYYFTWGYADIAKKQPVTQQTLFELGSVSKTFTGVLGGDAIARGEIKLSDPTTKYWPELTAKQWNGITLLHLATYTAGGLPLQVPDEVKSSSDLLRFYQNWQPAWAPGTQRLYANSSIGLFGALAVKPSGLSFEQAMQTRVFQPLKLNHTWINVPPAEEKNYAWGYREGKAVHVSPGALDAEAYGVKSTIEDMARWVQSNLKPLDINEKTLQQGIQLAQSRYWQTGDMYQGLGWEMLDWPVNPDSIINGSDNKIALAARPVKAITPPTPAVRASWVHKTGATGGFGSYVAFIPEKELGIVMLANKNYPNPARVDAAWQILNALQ
Test: qHTS Inhibitors of AmpC Beta-Lactamase (assay with detergent); further: nearly all actives have a fitted effect of over 25% in size
Settings: AmpC hydrolysis of nitrocefin, absorbance 480 nm, 0.01% Triton; series mostly up to 114 µM
In short: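 AmpC (5.3 nM in the dispensed reagent) in 20 mM phosphate pH 7.0 with 0.01% (detergent screen) or 0.0001% Triton X-100 was preincubated with compounds for 15 min at room temperature. Nitrocefin was then added from an 800 uM solution, and hydrolysis was followed at 480 nm.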
Potency means the concentration at half of the fitted maximal effect; tags describe the fitted curve by direction and shape.

| Structure (SMILES) | Potency |
| --- | --- |
| OCCOCCN1CCN(C2=Nc3ccccc3Sc3ccccc32)CC1 | inconclusive [inhibitor, full curve] |
| CC[N+](CC)(CC#Cc1ccccc1)CC(=O)c1ccc(Cl)cc1 | inconclusive [inhibitor, full curve, poor fit] |
| O=C(CCc1ccccc1)NCc1ccncc1 | inactive |
| O=C(COC(=O)/C=C/c1ccc(S(=O)(=O)N2CCOCC2)cc1)NCc1ccc2c(c1)OCO2 | inconclusive [inhibitor, partial curve, poor fit] |
| Oc1ccc2ccc3[nH]cnc3c2c1 | inconclusive [inhibitor, full curve, poor fit] |
| COC(=O)c1ccccc1NC(=S)NC(=O)COc1ccccc1 | inactive |
| O=C(c1cccc(-c2nnc(-c3ccccc3)o2)c1)N1CCCCC1 | inconclusive [inhibitor, partial curve] |
| N#CCCn1cc(C(=O)Nc2ccc([N+](=O)[O-])cc2)c(-c2cccs2)n1 | inconclusive [inhibitor, partial curve, poor fit] |
| Cc1ccccc1OCC(O)Cn1c(=N)n(Cc2ccccc2)c2ccccc21 (stereo not given) | inactive |
| Cc1nn(-c2nc3ccccc3[nH]2)c(=O)c2ccccc12 | inconclusive [inhibitor, partial curve] |
| C[C@]12C(=O)N(c3cccc(F)c3)C(=O)N1[C@@H]1c3ccccc3OC[C@@H]1[C@H]2c1ccccc1 | inconclusive [inhibitor, partial curve, poor fit] |
| Cc1cc(N2CCN(c3ccccc3)CC2)nc(-n2nc(C)cc2C)n1 | inconclusive [inhibitor, single point] |
| CC1CCCN(c2ncnc3c2cnn3-c2ccc(F)cc2)C1 (stereo not given) | inactive |
| Cc1ccc2c(c1)[C@@H]1CN(C)CC[C@@H]1N2C(=O)Nc1cccc(C(F)(F)F)c1 | inconclusive [inhibitor, partial curve, poor fit] |
| CC(C)n1nnc(-c2ccc(OCc3ccccc3F)cc2)n1 | inconclusive [inhibitor, full curve, poor fit] |
| O=C(COc1ccccc1Cl)Nc1cccc(S(=O)(=O)N2CCCC2)c1 | inactive |
| COc1cc(C(=O)N/C(=C\c2cn(S(=O)(=O)N(C)C)c3ccccc23)C(=O)NCCCO)cc(OC)c1OC | inactive |
| O=C(CCSCc1cccc(Cl)c1)NCc1ccccc1Cl | inactive |
| COc1ccc(NC(=O)CSc2nc3c(cc2C#N)CN(C)CC3)cc1 | inactive |
| CC(=O)Nc1ccc(S(=O)(=O)Nc2nnc(C(C)C)s2)cc1 | inactive |

— PubChem BioAssay AID485294 (National Center for Advancing Translational Sciences (NCATS), 2010)
